From paper PMC4336329 (PLoS ONE, 2015)
Out of some 310,000 compounds screened, about 14,000 (4.5%) showed an effect of 50% or more. Effects have a minus sign here. The list shows a part of the results.

target: human ether-à-go-go-related gene (hERG) potassium channel (human, UniProt Q12809); test: primary screen, population patch clamp on CHO cells stably expressing hERG
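Further: peak tail current of the secondary pulse compared with the same well before compound.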

Sequence of human ether-à-go-go-related gene (hERG) potassium channel (Q12809 whole entry, looked up): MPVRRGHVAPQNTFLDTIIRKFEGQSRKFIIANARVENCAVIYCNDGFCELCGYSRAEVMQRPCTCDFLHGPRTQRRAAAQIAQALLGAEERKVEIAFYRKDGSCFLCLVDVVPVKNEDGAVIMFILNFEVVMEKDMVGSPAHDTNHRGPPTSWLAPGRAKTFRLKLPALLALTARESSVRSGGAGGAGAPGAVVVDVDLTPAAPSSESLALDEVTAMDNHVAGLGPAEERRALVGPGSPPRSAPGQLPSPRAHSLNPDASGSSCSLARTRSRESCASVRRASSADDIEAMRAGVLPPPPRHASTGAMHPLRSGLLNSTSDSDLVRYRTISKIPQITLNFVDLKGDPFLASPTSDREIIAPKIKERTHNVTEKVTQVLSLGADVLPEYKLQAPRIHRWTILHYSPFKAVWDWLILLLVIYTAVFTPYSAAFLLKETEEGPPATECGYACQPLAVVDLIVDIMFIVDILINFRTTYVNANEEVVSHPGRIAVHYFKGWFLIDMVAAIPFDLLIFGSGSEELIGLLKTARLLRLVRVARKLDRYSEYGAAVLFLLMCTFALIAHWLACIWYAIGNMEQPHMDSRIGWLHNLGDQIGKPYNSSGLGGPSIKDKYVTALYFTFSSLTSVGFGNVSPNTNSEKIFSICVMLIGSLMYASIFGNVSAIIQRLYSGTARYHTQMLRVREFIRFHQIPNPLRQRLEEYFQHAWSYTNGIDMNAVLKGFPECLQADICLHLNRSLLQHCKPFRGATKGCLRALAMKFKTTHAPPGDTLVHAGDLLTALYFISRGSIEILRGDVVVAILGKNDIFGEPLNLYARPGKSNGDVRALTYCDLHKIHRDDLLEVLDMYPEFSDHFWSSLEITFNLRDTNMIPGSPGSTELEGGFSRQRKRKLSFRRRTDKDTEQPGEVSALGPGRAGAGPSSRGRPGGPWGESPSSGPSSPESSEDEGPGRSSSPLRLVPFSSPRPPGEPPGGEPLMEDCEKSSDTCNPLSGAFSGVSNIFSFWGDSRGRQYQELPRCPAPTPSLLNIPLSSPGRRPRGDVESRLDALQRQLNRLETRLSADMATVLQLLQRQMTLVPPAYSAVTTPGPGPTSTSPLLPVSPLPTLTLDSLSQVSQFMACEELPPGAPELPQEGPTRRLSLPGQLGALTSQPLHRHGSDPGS

Row | SMILES | hERG current change (%, negative = inhibition) at 10uM [%]
1 | Cn1c(=O)[nH]c(=O)c2c1nc(Sc1ncccn1)n2CCCc1ccccc1 | -36.5
2 | O=C1C(=O)N(Cc2cccnc2)C(c2ccc(Br)cc2)/C1=C(\O)c1ccc2c(c1)OCCO2 (stereo not shown) | 9.15
3 | Cc1ccc(S(=O)(=O)Nc2cc(C)cn(Cc3ccccc3)c2=O)cc1 | 2.58
4 | COc1cccc(NC(=O)CN(C)C(=O)c2ccccc2CCc2ccccc2)c1 | 13.7
5 | O=C(O)Cc1sc(Nc2cccc3ccccc23)nc1-c1ccc(F)cc1 | 20.3
6 | N#CCCn1cc(C(=O)Nc2ccc(C(=O)O)cc2)c(-c2cc3ccccc3o2)n1 | 10.7
7 | Cc1ccc(Oc2nc(C(F)(F)F)nc3ccccc23)cc1 | -2.07
8 | Cc1cc(C(=O)NNC(=O)CCC2CCCCC2)c(C)o1 | 16
9 | CSc1ccc(C(=S)N2CCN(C(c3ccccc3)c3ccccc3)CC2)cc1 | 6.62
10 | CC(=O)Nc1ccc(NC(=O)C(C)OC(=O)c2cccc(S(=O)(=O)N3CCCCC3)c2)cc1 (stereo not shown) | 17.4
11 | CCOC(=O)CNC(=S)N(Cc1cccs1)C1CCCCC1 | -34.7
12 | O=[N+]([O-])c1ccc2c(c1)oc1ccccc12 | -2.93
13 | CC1(C)C2CC=C(/C=N/NC(=O)C(N)=O)C1C2 (stereo not shown) | 9.46
14 | CCOC(=O)C1CCCN(c2c(Nc3cccc(C)c3)c(=O)c2=O)C1 (stereo not shown) | -4.9
15 | CC(=O)Nc1ccccc1NC(=O)CC(C)(C)C | -3.84
16 | OCC1(CO)COC(c2cccnc2)N1 (stereo not shown) | 5.6
17 | CCCn1nnnc1NCc1ccc(C(C)C)cc1 | 4.94
18 | O=C(CCCCn1c(=O)[nH]c2ccccc2c1=O)NCc1ccc2c(c1)OCO2 | -6.99
19 | CSc1ncc(Cl)c(C(=O)Nc2ccc(S(=O)(=O)Nc3nccc(C)n3)cc2)n1 | -7.34
20 | COc1ccc(N(CC(=O)Nc2ccc3c(c2)OCCO3)S(=O)(=O)c2cccnc2)cc1 | -13
21 | CC(C)CC(=O)NC(=S)NCc1ccccc1 | -3.56
22 | CCCNC(=O)CNC(=S)N(Cc1ccccc1F)C1CCCCC1 | -10.8

Row | SMILES | hERG current change (%, negative = inhibition) at 10uM [%]
23 | NC(=O)Nc1ccc(C(=O)OCC(=O)NCc2ccc3c(c2)OCO3)cc1 | 11
24 | CCOC(=O)C(=O)Nc1ccccc1C(=O)NC(C)C | -0.222
25 | Cc1ccc(Sc2ccc(CN3CCCCC3)cc2[N+](=O)[O-])cc1 | -27.4
26 | O=C(c1cc(F)ccc1F)C1CCCN(C(=O)CSc2ccccn2)C1 (stereo not shown) | -31.9
27 | CC(=O)NC(Cc1c[nH]c2ccccc12)C(=O)NCc1ccco1 (stereo not shown) | 12.5
28 | Cc1nc(Nc2nc3ccccc3o2)nc2c1CCC2 | 14.3
29 | O=C(O)c1ccc(N2C(=O)c3cccc(Oc4ccc(Cl)cc4)c3C2=O)cc1 | -80.7
30 | CC(=O)C1C(=O)CC(c2ccc(Cl)cc2)CC1=O (stereo not shown) | 3.96
31 | CC(=O)c1cccc(NC(=O)COC(=O)c2ccc(S(C)(=O)=O)c([N+](=O)[O-])c2)c1 | 27.4
32 | COc1ccc2nc(SCC(=O)Nc3ccc4[nH]c(=O)[nH]c4c3)[nH]c2c1 | 13.6
33 | CCc1cccc(C)c1NC(=O)C1CC=CCC1C(=O)O (stereo not shown) | 13.2
34 | COc1ccc(C2Nc3ccccc3C(=O)N2NS(C)(=O)=O)cc1OC (stereo not shown) | 20.3
35 | COc1ccc(S(=O)(=O)N2CCN(c3ccccc3)CC2)cc1 | -14.7
36 | COC(=O)Nc1ccc(S(=O)(=O)N2CCN(CCN3C(=O)C4C5C=CC(C5)C4C3=O)CC2)cc1 (stereo not shown) | -6.26
37 | Cn1c(/N=C/c2cc(Cl)ccc2O)nc2ccccc21 | 5.14
38 | CCN1CCN(c2nc3c(C)cccn3c(=O)c2/C=C(\C#N)C(=O)NCCCOC)CC1 | 2.76
39 | C=C(C)[C@H]1CN[C@H](C(=O)O)[C@H]1CC(=O)O | 6.4
40 | Cc1cc(NC(=O)COC(=O)CCCOc2ccc(Cl)cc2C)no1 | 11.4
41 | COc1ccccc1Cn1c(=S)[nH]c2cc(C(=O)NCCN3CCOCC3)ccc2c1=O | -3.38
42 | Cc1ccc2c(CN(C)Cc3cccc(Cl)c3)cc(=O)oc2c1C | 12
43 | Cc1cc(/C([O-])=C(/C(=S)Nc2ccc(F)cc2)[n+]2ccccc2)c(C)n1Cc1ccccc1Cl | 16.8
44 | COc1ccccc1C(=O)NCC(=O)N/N=C/c1ccc2c(c1)OCO2 | 13.4

Row | SMILES | hERG current change (%, negative = inhibition) at 10uM [%]
45 | O=C(NCCC(NS(=O)(=O)OCC(Cl)(Cl)Cl)c1ccccc1)C(F)(F)F (stereo not shown) | -16.4
46 | O=C(O)C(=O)O.O=C1CN(C(=O)CNCc2ccccc2Cl)c2ccccc2N1 | 2.15
47 | CC(C)(C)OC(=O)N1CCC[C@H]1c1nnc(SC/C=C/c2ccccc2)o1 | -31.8
48 | CCCCN(CC)C(=S)Nc1ccc2nc3n(c(=O)c2c1)CCCCC3 | -59
49 | O=C(CCCC(=O)N(CC(=O)NC1CCCC1)Cc1ccc2c(c1)OCO2)Nc1ccccn1 | -26.5
50 | COc1ccc(N=Cc2c(O)n(Cc3ccccc3)c(=S)[nH]c2=O)c(OC)c1 | -1.29
51 | CC1CN(Cc2ccccc2)c2ccccc2NC1=S (stereo not shown) | 6.25
52 | N#C/C(=C/c1cccc([N+](=O)[O-])c1)c1nnc2n1CCCCC2 | -22.2
53 | COc1ccc(C(=O)N2CCCC(Nc3ccc(F)cc3)C2)cc1F (stereo not shown) | -6.55
54 | CN1C(=O)N(C)C(=O)C(CCc2ccccn2)(CCc2ccccn2)C1=O | 3.54
55 | O=C(Nc1ccc(S(=O)(=O)N2CCOCC2)cc1)c1ccc(Cl)cc1Cl | -16.8
56 | Cc1cc(=O)c(C(=O)O)nn1-c1ccccc1 | 5.86
57 | CCOC(=O)C1=C(C)NC(C)=C(C(=O)OCC)C1C(=O)OCC(=O)NCCc1ccc(S(N)(=O)=O)cc1 | 10
58 | Cc1cc(C)nc(NS(=O)(=O)c2ccc(NC(=O)c3snnc3C)cc2)n1 | 13.3
59 | S=C(NCc1cccnc1)Nc1ccc(Cl)cc1Cl | 4.6
60 | Cc1ccc(C(=O)COC(=O)c2ccc(Br)o2)cc1C | 2.78
61 | COc1ccccc1-c1nc(COc2ccc(Cl)cc2Cl)no1 | 12.8
62 | CC(C)OC(=O)c1cccc(NC(=O)c2ccccc2)c1 | -28.6
63 | NS(=O)(=O)c1ccc(NCC2COc3ccccc3O2)c([N+](=O)[O-])c1 (stereo not shown) | 6.02
64 | Brc1ccc(CNc2cc3c(cc2Br)OCCO3)cc1 | 31.3
65 | COc1cccc(-n2c(=O)c3sccc3n(CC(=O)NC3CCCCC3)c2=O)c1 | 7.52
66 | Cc1ccc2nc(-c3ccccc3)c(CN3CCSCC3)n2c1 | -28.4

Row | SMILES | hERG current change (%, negative = inhibition) at 10uM [%]
67 | COc1cccc(CNS(=O)(=O)c2ccc3c(c2)N(C)CCO3)c1 | -5.83
68 | CC(C)(O)c1cn(-c2nonc2N)nn1 | -2.57
69 | O=C(C/C=N/OCc1c(Cl)cccc1Cl)c1ccccc1 | -7.98
70 | CN(C)S(=O)(=O)N(CC(=O)NCc1ccccc1)c1ccccc1 | 1.87
71 | CCOc1ccc(N2CC(O)Cn3c2nc2c3c(=O)n(CCCc3ccccc3)c(=O)n2C)cc1 (stereo not shown) | -5.28
72 | O=C(N/N=C/c1ccc(OC2CSC2)cc1)c1ccccc1 | -13.6
73 | C[C@]12CC(=O)CC1CCC1C2CC[C@@]2(C)C1CC[C@@H]2O (stereo partly shown) | 4.2
74 | Cc1nc2scc(-c3ccccc3)c2c(=O)o1 | -12.7
75 | CN(CC(=O)Nc1ccc(Cl)cc1)S(=O)(=O)c1ccc2c(c1)n(C)c(=O)c(=O)n2C | 16.3
76 | COc1ccc(S(=O)(=O)NCCC(=O)OCC(=O)c2ccc[nH]2)cc1[N+](=O)[O-] | -30.2
77 | Cc1ccc(C(C)C)c(Oc2nnnn2-c2ccccc2)c1 | 14.2
78 | Cc1cccc(N2CCN(c3nnnn3-c3ccccc3)CC2C)c1 (stereo not shown) | -10.8
79 | O=C(CSc1cc(Cl)ccc1Cl)NCC1CCCO1 (stereo not shown) | -16.8
80 | CCOP(=O)(OCC)C(Nc1ccccc1)c1ccco1 (stereo not shown) | 19.7
81 | CC(=O)c1cccc(NC(=O)N2C3CCC2CC(O)(c2cccnc2)C3)c1 (stereo not shown) | 7.47
82 | CCOC(=O)c1c(NC(=O)c2ccncc2)sc(C)c1C | 11.1
83 | CCOc1cc(NCCN2CCOCC2)c([N+](=O)[O-])cc1OCC | -7.79
84 | O=C(N/N=C\c1ccc(CNS(=O)(=O)c2ccccc2)o1)C(=O)Nc1ccc(F)cc1 | -22.3
85 | COC(=O)CC1(C(=O)OC)Oc2ccccc2C(=O)N1c1ccc(F)cc1F (stereo not shown) | 6.4
86 | COCc1cc(CNC(=O)C2CCC(=O)N(Cc3ccccc3OC)C2)[nH]n1 (stereo not shown) | 16.8
87 | CCOC(=O)c1nnn(-c2nonc2N)c1COc1cc(C)c(Cl)c(C)c1 | 6.59
88 | CCc1nn(CC(=O)N2CCC(C)CC2)c(=O)c2cccn12 | 19.4
